Data: patent US5756478A, “Method for reducing toxicity of D-nucleoside analogs with L-nucleosides” (priority 1996, dated 1998)
Several values for one entry are separate records, joined by “and”; a condition that tells them apart may be missing. Equal values may be shown once. The name of at least one read-out is uncertain.

Tested on: Mitochondrial DNA (mtDNA)
Assay: Mitochondrial DNA (mtDNA) content of CEM cells (slot blot)
Assay type: cell-based, Human
Settings: 8 days
Procedure: To determine the effect of nucleoside analogues on mtDNA content, CEM cells were treated with various concentrations of drug 8 days with medium and drug changes every 2 days. Cells (1×10^5)are washed twice with phosphate buffered […] (PBS) and resuspended in 25 mM Tris (pH 8.0) and 1 mM EDTA. The cells are lysed by 5 cycles of freeze/thaw. RNAase A (DNase free, final concentration of 0.1 mg/ml) is added to the cel ysate and incubated for 3 hours at 50° C. The lysate is brought to a final concentration of 10×SSC, boiled for 10 min., and applied to a nylon membrane presoaked in 2X SSC using a slot blot apparatus. […] All blots are normalized for loading using an Alu probe (ATCC). Blots are exposed to X-ray film and quantitated using a Molecular Dynamics Personal Densitometer SI.

[1] = single agent, 1.0 uM, percentage of control

Nc1nc(=O)n(C2CCC(CO)O2)cc1F (single isomer, unassigned) [β-L-FddC, β-L-5-fluoro-2',3'-dideoxycytidine]
Percent mtDNA Content (single agent, 0.5 uM, percentage of control): 87%
Percent mtDNA Content (single agent, 2.0 uM, percentage of control): 98%

Cc1cn([C@H]2C=C[C@@H](CO)O2)c(=O)[nH]c1=O [D4T, β-D-2',3'-didehydro-3'-deoxy-thymidine]
Percent mtDNA Content (15 uM with 0.5 uM β-L-FddC): 103%
Percent mtDNA Content (15 uM with 2.0 uM β-L-FddC): 92%
Percent mtDNA Content (40 uM with 0.5 uM β-L-FddC): 72%
Percent mtDNA Content (40 uM with 2.0 uM β-L-FddC): 77%
Percent mtDNA Content (single agent, 15 uM, percentage of control): 81%
Percent mtDNA Content (single agent, 40 uM, percentage of control): 48%

O=c1[nH]cnc2c1ncn2C1CCC(CO)O1 [DDI, β-D-2',3'-dideoxyinosine]
Percent mtDNA Content (50 uM with 1.0 uM FTC): 85%
Percent mtDNA Content (100 uM with 1.0 uM FTC): 55%
Percent mtDNA Content (200 uM with 1.0 uM FTC): 24%
Percent mtDNA Content (single agent, 50 uM, percentage of control): 37%
Percent mtDNA Content (single agent, 100 uM, percentage of control): 34%
Percent mtDNA Content (single agent, 200 uM, percentage of control): 7%

Nc1ccn([C@@H]2CS[C@H](CO)O2)c(=O)n1 [L(-)SddC, β-L-2',3'-dideoxy-3'-thiacytidine]
Percent mtDNA Content [1]: 111%

Nc1ccn(C2CCC(CO)O2)c(=O)n1 [ddC, β-D-2',3'-dideoxycytidine]
Percent mtDNA Content (0.01 uM with 0.5 uM β-L-FddC): 81%
Percent mtDNA Content (0.01 uM with 1.0 uM 3TC): 109%
Percent mtDNA Content (0.05 uM with 2.0 uM β-L-FddC): 61%
Percent mtDNA Content (0.1 uM with 1.0 uM 3TC): 65%
Percent mtDNA Content (1.0 uM with 1.0 uM 3TC): 11%
Percent mtDNA Content (single agent, 0.01 uM, percentage of control, 11520 min): 60% and 77%
Percent mtDNA Content (single agent, 0.05 uM, percentage of control): 28%
Percent mtDNA Content (single agent, 0.1 uM, percentage of control): 26%
Percent mtDNA Content [1]: 5%
